Measurements taken from paper PMC6919601, “Identification of Plasmodium dipeptidyl aminopeptidase allosteric inhibitors by high throughput screening” (PLoS ONE, 2019).
About 230 (0.21%) of roughly 110,000 compounds showed an effect of 50% or more. The list shows a part of the results.

The compounds below were run against DPAP1 (Plasmodium falciparum, UniProt Q8IIJ9) (assay: primary screen, percent inhibition; read by cleavage of a fluorogenic dipeptide substrate; higher = more effect of the substance).
DPAP1, sequence (Q8IIJ9 whole entry, looked up): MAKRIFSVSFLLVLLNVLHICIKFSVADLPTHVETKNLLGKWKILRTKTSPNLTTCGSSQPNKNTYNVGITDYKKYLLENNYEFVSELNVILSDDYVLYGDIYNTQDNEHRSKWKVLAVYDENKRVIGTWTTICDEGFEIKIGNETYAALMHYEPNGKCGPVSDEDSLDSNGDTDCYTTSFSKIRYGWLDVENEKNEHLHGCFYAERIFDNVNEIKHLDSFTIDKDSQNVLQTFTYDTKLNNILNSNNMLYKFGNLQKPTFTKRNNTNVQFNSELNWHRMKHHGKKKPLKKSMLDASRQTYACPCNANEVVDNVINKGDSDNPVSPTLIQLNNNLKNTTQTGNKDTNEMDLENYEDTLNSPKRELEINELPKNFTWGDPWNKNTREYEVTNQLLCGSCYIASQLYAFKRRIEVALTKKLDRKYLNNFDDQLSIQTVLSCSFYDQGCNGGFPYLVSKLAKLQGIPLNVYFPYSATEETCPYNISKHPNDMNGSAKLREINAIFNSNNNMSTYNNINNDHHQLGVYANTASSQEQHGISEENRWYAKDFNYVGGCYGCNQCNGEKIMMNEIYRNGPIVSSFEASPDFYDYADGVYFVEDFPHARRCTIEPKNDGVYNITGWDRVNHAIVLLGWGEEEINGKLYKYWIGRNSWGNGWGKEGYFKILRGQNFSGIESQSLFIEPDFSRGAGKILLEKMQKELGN
Design: species or system P. falciparum D10 trophozoite lysates; single well
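Also: 30 min substrate incubation versus DMSO and 10 µM JCP410 controls.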

Compound	% Inhibition @ 10 uM [%]
S=C(Nc1ccc2nccnc2c1)N1CCCCCC1	2.16
COc1ccc(CC2C(=O)NC(=S)NC2=O)c(OC)c1	-2.48
N#CCNC(=O)C(Cc1cccc(OC(=O)OCc2ccccc2)c1)NC(=O)OCc1ccccc1 (centres unmarked)	-1.83
CCCN(CCC)C(=O)CSc1ncccc1C(=O)O	-2.26
C=CCN1C(=O)N/C(=C/c2c(F)cccc2Cl)C1=O	-1.6
CC1CCCCN1C(=O)c1ccc(C(=O)N2CCCCC2C)nc1 (centres unmarked)	1.49
c1ccc(CNc2ncnc3scc(-c4cccs4)c23)nc1	-4.04
Cc1ccc(C(=O)NC2CCCC2)cc1[N+](=O)[O-]	1.83
CCOC(=O)c1c(NC(=O)COc2c(F)c(F)cc(F)c2F)sc(C(=O)N(CC)CC)c1C	10
COc1ccc(Cc2ccc(OC)c(N)c2)cc1N	8.06
CCCCN(CCCC)S(=O)(=O)c1ccc2nc(O)cc(C(=O)NCc3cccnc3)c2c1	-3.12
CCOC(=O)C1=C(C)NC(=O)NC1c1ccc(F)cc1F (centres unmarked)	-3.67
COc1ccc(NCc2ccc(Br)cc2)cc1	4.22
O=C(Nc1ccccc1NC(=O)c1cccs1)c1cccs1	-1.04
COc1cc(C(=O)NC(C)C2COc3ccccc3O2)cc(OC)c1OC (centres unmarked)	-1.29
COc1ccc(CCNC(=O)CCCn2ncn3c(cc4occc43)c2=O)cc1OC	4.55
O=C(Nc1ncc(Cc2cccc(C(F)(F)F)c2)s1)c1cc2ccccc2c(=O)o1	3.34
CSC1=NC(n2ncc(C#N)c2N)c2c(oc3c2CC(C)(C)SC3)N1 (centres unmarked)	2.4
C/C(O)=C1/C=C(NC(=O)c2ccccc2)C(=O)N(c2ccccc2)C1=O	-5.48
Cc1cc2sc3ccccc3c(=O)c2c(C)c1O	-4.23
Cn1c(=O)n(C)c2cc(S(=O)(=O)N3CCOCC3)ccc21	-2.03
NC(CC(=O)O)c1ccc(Cl)cc1 (centres unmarked)	-1.69
NC(=O)CSc1nc2ncccc2c(=O)n1Cc1ccccc1Cl	-1.66
COc1ccc(C2C3CCc4cc(OC)ccc4C3=NN2/C(C)=C/C(C)=O)cc1 (centres unmarked)	58.5
CCCSc1nc2cn(CC)nc2c(=O)n1Cc1ccc(Cl)cc1	-5.89
O=C(NCCO)/C(=C\c1ccc(Cl)cc1)NC(=O)c1ccccc1	-2.62

Compound	% Inhibition @ 10 uM [%]
COc1ccc(C(=O)Nc2cccc(O)c2)cc1OC	2.54
CCOC(=O)Nc1cc(=O)c2ccccc2o1	5.03
Cc1ccc(C(=O)Nc2sc(C(=O)N(C)C)c(C)c2C#N)cc1	-1.3
Cc1ccc(CNC(=O)[C@@H](c2ccccc2)N2Cc3ccccc3C2=O)cc1	1.26
Cc1ccc(C(=O)N/C(=C/c2ccccc2)C(=O)NCC(=O)O)cc1	0.222
Fc1cc(Br)ccc1-n1ncnc1-c1ccccc1	-1.82
Cn1c2c(c(=O)n(C)c1=O)C(c1ccc(F)cc1)C1=C(O)c3ccccc3C1=N2 (centres unmarked)	1.08
CN1CCC(NCc2ccc(Cl)cc2Cl)CC1	-5.65
OCCN(CCO)Cc1ccc(Br)cc1	0.162
COCCNC(=O)c1cc2cc3ccc(OC)cc3nc2o1	-5.22
C=CCN(CC=C)C(=O)CSc1nc(C)c(Cl)c(C)c1C#N	-0.0108
Cc1ccccc1OCC(=O)N(Cc1ccc(Cl)cc1)Cc1ccco1	-4.02
COc1ccc(N(CC(=O)Nc2ccc(C)cc2C)S(=O)(=O)c2ccccc2)cc1OC	-11.1
Cc1ccc2c(cnn2C(=O)CCC(=O)NCCCN2CCOCC2)c1	13.6
c1ccc(CCN2Cc3ccccc3C2)cc1	-7.35
CC(C)C[C@H](NS(=O)(=O)c1ccc(-c2ccccc2)cc1)C(=O)NCC#N	-3.48
O=C(Nc1ccccc1C(=O)Nc1ccccc1)c1ccc(Br)o1	-7.25
CCOc1cccc(/C=N/n2c(C)nnc2-n2nc(C)cc2C)c1O	0.884
Nc1cc(-c2ccccc2)nn1S(=O)(=O)c1ccc(F)c(Cl)c1	-0.704
CCn1c2ccccc2c2cc(CN3CCN(C)CC3)ccc21	2.47
CCCCN(CC)CCCNC(=O)c1csc2c1CCCCC2	-1.44
Cc1cc(O)ccc1/N=C/C=C(\O)c1ccc(Cl)cc1	3.62
O=C(CCc1nc2cccnc2n1Cc1cccs1)NC1CCCCC1	-9.07
CC(NC(=O)C(F)(F)C(F)(F)C(=O)NC(C)C1CC2CCC1C2)C1CC2CCC1C2 (centres unmarked)	-1.21
COc1ccc(S(=O)(=O)N2CCN(Cc3cc(OC)c(OC)c(OC)c3)CC2)cc1	-7.45
Cc1c(S(=O)(=O)c2ccc(Cl)cc2)nnn1-c1cc(F)ccc1F	-3.68

Compound	% Inhibition @ 10 uM [%]
CCCNC(=O)c1ccc(COc2ccc(C(C)(C)C)cc2)o1	2.1
Cc1ccc(C2(c3ccc(C)cc3)C(=O)NCc3ccccc32)cc1	-5.08
C=C(C)[C@@H]1CC=C(CN2CCN(c3ccccc3)CC2)CC1	-4.14
CCOC(=O)/C(C#N)=C/c1c(Oc2ccc(C)cc2C)nc2c(C)cccn2c1=O	2
COc1ccc(NC(=O)c2sc3nc(C(F)(F)F)cc(-c4ccco4)c3c2N)cc1OC	0.873
COc1ccc(C2=NS(=O)(=O)N(C)C(C(=O)NCCN3CCOCC3)=C2)cc1	-1.06
Cc1ccc(NS(=O)(=O)c2cccc(C(=O)Nc3ccccc3C(=O)O)c2)cc1	-5.47
COc1ccccc1CN1CCc2nc(S)nc(O)c2C1	-6.85
Cn1c(=O)c2c(nc(N3CCCCC3)n2CCN)n(C)c1=O	4.3
Cc1ccc(S(=O)(=O)N2CCCC2C(=O)Nn2cnnc2)cc1 (centres unmarked)	-4.64
CC(C)(CO)NS(=O)(=O)c1ccccc1[N+](=O)[O-]	-0.0217
O=C(CCCc1c[nH]c2ccccc12)Nc1cccc2cccnc12	-3.26
Cc1onc(-c2c(Cl)cccc2Cl)c1C(=O)NC(c1ccccc1)c1ccccc1	-8.04
Cc1c(C)n(C)c2ccc(C(=O)NC3CCCCCC3)cc12	-0.0309
c1nc(NCCN2CCOCC2)c2nc3n(c2n1)CCCCC3	-5.46
O=C(O)CCC(=O)Nc1ccc(Oc2ccc(NC(=O)CCC(=O)O)cc2)cc1	-2.72
CC1CN(c2oc(/C=C/c3cccs3)nc2C#N)CC(C)O1 (centres unmarked)	3.27
CCCOc1ccc(N2C(=O)C(Cl)=C(Nc3ccccc3)C2=O)cc1	-1.07
Cc1cc(C)n(C(=O)C2COc3ccccc3O2)n1 (centres unmarked)	0.131
COc1ccccc1C1CC(c2ccc(C)cc2)=NN1C(C)=O (centres unmarked)	-3.97
COc1ccc(NC(=O)CN(Cc2ccccc2)S(C)(=O)=O)c(OC)c1	-1.52
CS(=O)(=O)N(CC(=O)N1CCC(Cc2ccccc2)CC1)Cc1ccccc1	-15.2
C=C(C)CN(CC)C/C=C/c1ccccc1[N+](=O)[O-]	-0.603
O=C(O)CC/C(=C1\C=C(c2ccc(Cl)cc2)NC1=O)c1ccc(Cl)cc1	12.6
CC(C)C[C@H](NC(=O)c1ccc2oc(-c3ccc[n+](C)c3)nc2c1)C(=O)NCC#N	-1.5
CCOC(=O)c1cc2c(=O)n3ccccc3nc2n(C)/c1=N\C(=O)c1ccc(OC)cc1OC	3.61

Compound	% Inhibition @ 10 uM [%]
COCCCN(Cc1cccs1)S(=O)(=O)c1ccc(-c2cc(C(F)(F)F)no2)s1	0.185
CCOC(=O)c1c(NC(=O)c2cc(Cl)ccc2OC)sc(C(C)=O)c1C	3.86
COc1ccc(C2C=C(c3cccnc3)Nc3nc4ccccc4n32)cc1 (centres unmarked)	3.32
Cc1ccc(NC(=O)c2ccc(Cl)cc2)c(C)c1	-5.34
O=C(NC1CCS(=O)(=O)C1)OC1CCCCC1 (centres unmarked)	-6.44
Cc1coc2cc3oc(=O)c(CC(=O)NCc4ccccc4Cl)c(C)c3cc12	4.13
Cc1cccc(C(=O)Nc2cccc(NC(=O)c3cccc(C)c3)c2)c1	-0.28
CC1=C(C(=O)Nc2ccc(F)cc2)C(c2cccc(F)c2)NC(S)=N1 (centres unmarked)	-5.48
O=[N+]([O-])c1ccc(CN2CCN(c3ccc(F)cc3)CC2)s1	-3.77
O=C(NC1CCc2ccccc2C1)c1cc2c(=O)oc3ccccc3c2s1 (centres unmarked)	5.12
O=C(O)c1ccc([N+](=O)[O-])cc1NC(=O)c1cccc2ccccc12	12.7
COC(=O)c1cc(-c2ccc3ccccc3c2)[nH]n1	-1.6
COC(=O)c1c(-c2cc(C)ccc2C)csc1NC(=O)C1CCCCC1C(=O)O (centres unmarked)	8.51
COc1ccccc1/C=C1\C(=O)NC(=S)N(c2cccc3ccccc23)C1=O	-3.32
CCC(C(=O)N1CCCC1)n1c(C(=O)OC)cc2sccc21 (centres unmarked)	-8.93
Cc1cccc(CNc2nc3nc(C)c(Cl)c(C)n3n2)c1	1
COc1ccc(C2C(C(=O)Nc3cccnc3)=C(C)Nc3nc(CCCO)nn32)cc1 (centres unmarked)	0.889
COc1cccc(-n2c(S)nnc2CN2CCN(C)CC2)c1	5.42
CC(CNC(=O)Nc1ccc(Cl)cc1)NC(=O)Nc1ccc(Cl)cc1 (centres unmarked)	-1.38
CC(C)Oc1ccc(CNC(=O)c2cc3cccc4c3n2CCS4)cc1	0.107
O=C(CC(=O)NCc1cccnc1)NCc1cccnc1	-2.74
COc1ccc(C(=O)c2ccccc2)c(OCC(=O)NC23CC4CC(CC(C4)C2)C3)c1	-5.23
Cc1cc2ncn(Cc3ccc(Cl)cc3)c2cc1C	-2.28
